Reference: the RNAGym collection of RNA variant scans (doi:10.7554/elife.90254)
The source gives no read counts; variants with many changes may rest on few reads.

B1: OR4K15 (parent)
chain: GUUAACGGUCAUAGGCCAUGGAAACUAGGAGCACCAUUUCGCUGCCAGUGAAGAAAUGAACAAAGAAAAUCUGGGCCAGGCAGGCAUCAAAAGAAAUAGUCUUGCGCUCAACCAGAAAGUCUGUAAUCAUUUUAAGGGUA

Variants of: B1
Assay: self-cleavage, relative activity (ratio to wild type); higher = more cleavage; in vitro, sequencing; the parent is a self-cleaving ribozyme

Variant | self-cleavage
A5C A66G U103C U108A A126G | 0
A5C A78G U122C U139C | 0.2
A5C A82G A86G | 0.46
A5C G7U U9C U26A U57C | 1.68
A5C G15U A114G | 0.4
A5C G50A A54G A91G A95G A114G | 1
A5C U9C A52G | 0.71
A5C U37C U39A U72A A126G | 0.22
A5C U39C A63G | 2.08
A5C U43A A64G | 1.36
A5C U100A A118G U130C | 0.22
A5G A11C A24U U49C A52G A64C | 1.08
A5G A11G A59G A82U A86G | 0.04
A5G A11G U19A | 1.23
A5G A11G U19C A54U A118G | 0.8
A5G A11G U26C | 1.43
A5G A11G U43A A63G | 0.84
A5G A11G U49C | 1.05
A5G A11U A67G | 0.83
A5G A11U U26C U49A A56G U131C | 1.38
A5G A13G A23G G41U A56G | 0.33
A5G A13G A24U G75C A91U | 0.28
A5G A13G A52G U57C | 1.39
A5G A13G A116U | 0.25

Variant | self-cleavage
A5G A13G C35U U39A A68G | 0.53
A5G A18G A52G A114G U131C U132A | 0.36
A5G A18G A54G U102C A126C | 0.77
A5G A18G A60G U122G U130C | 2.03
A5G A18G A69G A129G | 1.3
A5G A18G A91U A98G | 0.67
A5G A18G U19C A96G U120G | 2.2
A5G A18G U19C A116G U132C | 0.39
A5G A18G U39C A56G A62G U102C U103C | 0
A5G A18G U131C | 0.78
A5G A18U A33G | 0.57
A5G A18U A63U | 0.93
A5G A18U U19C | 0.71
A5G A18U U39C U43C A86G A98G | 0.85
A5G A18U U49C A129G | 1.27
A5G A18U U87C | 0.42
A5G A22G A23G A59G U87C A134G | 0.95
A5G A22G A60G U124C | 0.62
A5G A22G A63G A114G | 0.55
A5G A22G A64G A126C | 0.35
A5G A22G A117G U139C | 1.64
A5G A22G G44A U49C A90G A91G | 0.92
A5G A22G U70C C101A A116U | 0.14
A5G A22U A60G A96G U100C U120C | 1.84

Variant | self-cleavage
A5G A22U G31A C42A A90G | 0.78
A5G A23G A59U | 0.51
A5G A23G A86G U130A | 0.77
A5G A23G C61G A82U U100C U122G | 0.68
A5G A23G U37C | 0.72
A5G A23G U108G | 0.02
A5G A24C A94G | 1.14
A5G A24G A52G A126G U127A | 2.22
A5G A24G A54U A56G A86G | 0.57
A5G A24G A95G G106U | 0.02
A5G A24G A118G | 0.49
A5G A24G C46A U49C U124A | 0.5
A5G A24G U26A A92G | 1.57
A5G A24G U38G A56U A60G A111C | 0.07
A5G A24G U39C U70C | 0.65
A5G A24G U70A U122C | 0.93
A5G A24U A47G A52G A129G | 0.79
A5G A30C A36G A51G A63G A96G A140G | 0.52
A5G A30G A33U A59G | 1.25
A5G A30G A54G A96G U103G | 0.1
A5G A30G A66U A68G U120A | 0.95
A5G A30G A68G A92G A95G A116G | 1.14
A5G A30G A78U G84A A89G U122C | 0.2
A5G A30G A96U U102A | 1.65

Variant | self-cleavage
A5G A30G G41A U132C | 0.71
A5G A30U A55G U87G | 0.79
A5G A30U U87C A114U | 0
A5G A33G A47G A52U A86U U87A A95G U103C | 1.21
A5G A33G A59G A82U | 0.19
A5G A33G A78G | 0.19
A5G A33G A140U | 1.06
A5G A33G U43C A67G U87C | 0.21
A5G A33U A95G U102A | 1.09
A5G A33U A134U | 1.72
A5G A33U U49C U102A | 0.82
A5G A36C A118G | 1.06
A5G A36G A68G | 1.38
A5G A36U U39A A62G | 0.93
A5G A47C U87G | 0.47
A5G A47G U57C A68C A78G | 0.51
A5G A51G A78G | 0.39
A5G A51G A78U A125U | 0.32
A5G A51G A90G A98G | 0.1
A5G A51G A90G A116G | 0.18
A5G A51U A125G | 0.57
A5G A51U U72A A92G | 0.15
A5G A52G A54G G138C | 1.46
A5G A52G A60G A96G | 0.92

Variant | self-cleavage
A5G A52G A67G | 0
A5G A52G A86G U131C | 0.77
A5G A54C A60G A92G U127A | 0.85
A5G A54G A78U A89G A98U A111G A126G | 0.02
A5G A55C A78G A116G U120C A125G U127C | 0.02
A5G A55G A60G A66G U127C | 0.74
A5G A55G A66G | 0.67
A5G A55G A78U | 0.5
A5G A55G A96G A114G | 0.34
A5G A55G G79U A91G A111G | 0.01
A5G A55G U87C A91G | 0.95
A5G A56G A64G U131C | 0.68
A5G A56G A92G | 1.99
A5G A56G A125C | 0.62
A5G A56G G75U A95G | 0.11
A5G A56G U130C | 0.83
A5G A59G A60G A110U A129C | 1.18
A5G A59G A63U A68G U102C | 1.5
A5G A59G A94G | 1.06
A5G A59G A95G A135G | 1.02
A5G A59U U108C A117U | 0.06
A5G A59U U108G A117G U132C | 0.01
A5G A60G A91C A95G | 1.29
A5G A60G G75A A98G | 0.17

Variant | self-cleavage
A5G A60U A94U U108C | 0.06
A5G A60U C101A | 0.03
A5G A62G A82G A117G | 1.24
A5G A62G U108A | 0.05
A5G A62U A66G A68G A78G | 0.39
A5G A62U A78G U100C U124C | 0.27
A5G A63G A92G U103C | 0.73
A5G A63U A69G A94G | 0.76
A5G A64G A91G U100A | 0.67
A5G A64G U70C U103C | 0.54
A5G A64G U87C | 0.52
A5G A64G U87C A91G | 0.41
A5G A64U A111U | 0.14
A5G A66G A82G A94C U108C | 0.06
A5G A66U A69G | 1.13
A5G A67G A89U A91G A134U | 1.11
A5G A67G A96G U108C | 0.09
A5G A67G A110U | 1.29
A5G A67G U87C | 0.9
A5G A67G U132A | 0.74
A5G A68G A125G | 0.47
A5G A68G U102A U108C | 0.02
A5G A68U A129G | 0.99
A5G A69C A110G | 0.26

Variant | self-cleavage
A5G A69G A82U | 0.28
A5G A69G A96U A98G A125G | 0.41
A5G A69G A134G | 1.58
A5G A78G A82G C121A | 0.36
A5G A78G A94G U120C | 0.2
A5G A82G A92G | 0.92
A5G A82G U122C U132C | 0.38
A5G A82G U132C | 0.65
A5G A82U U122C | 0.27
A5G A86U A90G U131A | 0.68
A5G A89G A95G | 2.55
A5G A89G U132C | 1.29
A5G A91G A110C | 0.19
A5G A95G A134G | 0.9
A5G A95G U130C | 0.58
A5G A96G A118G U132C | 0.82
A5G A98U A118G | 1.33
A5G A111G A126G | 0.01
A5G A111G U139G | 0.11
A5G A114U A125G A126G | 0.03
A5G A116G A117G A125G | 0.1
A5G A117G A129U | 1.39
A5G A117G A140G | 1.5
